Among the data in PubChem BioAssay AID488969 (Vanderbilt High Throughput Screening Facility, 2010) are z-score values, retold here.

Each structure is given as a SMILES string. The full ranking holds about 110,000 compounds; the median of “z-score” is about -0.1, and the highest 2% start at about 2. This is one part of the list. Calls of active or inactive are those of the source.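 The calls were made as follows: active = z-score in the third read window above 3 or below -3; inactive = the rest.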

The target of the experiment is Metabotropic glutamate receptor 8 (Rattus norvegicus) (UniProt P70579). Put plainly: mGluR8 Gi/Go-coupled signaling modulation – cell-based, rat, thallium flux, HTS, primary screen (AID 488969). Conditions: HEK293 rat mGluR8, GIRK (G protein-gated inwardly rectifying potassium channel) thallium flux, FluoZin2; at 10 µM; stronger effect = higher value; submaximal glutamate (EC20) added with thallium.
UniProt P70579, sequence (P70579 whole entry, looked up): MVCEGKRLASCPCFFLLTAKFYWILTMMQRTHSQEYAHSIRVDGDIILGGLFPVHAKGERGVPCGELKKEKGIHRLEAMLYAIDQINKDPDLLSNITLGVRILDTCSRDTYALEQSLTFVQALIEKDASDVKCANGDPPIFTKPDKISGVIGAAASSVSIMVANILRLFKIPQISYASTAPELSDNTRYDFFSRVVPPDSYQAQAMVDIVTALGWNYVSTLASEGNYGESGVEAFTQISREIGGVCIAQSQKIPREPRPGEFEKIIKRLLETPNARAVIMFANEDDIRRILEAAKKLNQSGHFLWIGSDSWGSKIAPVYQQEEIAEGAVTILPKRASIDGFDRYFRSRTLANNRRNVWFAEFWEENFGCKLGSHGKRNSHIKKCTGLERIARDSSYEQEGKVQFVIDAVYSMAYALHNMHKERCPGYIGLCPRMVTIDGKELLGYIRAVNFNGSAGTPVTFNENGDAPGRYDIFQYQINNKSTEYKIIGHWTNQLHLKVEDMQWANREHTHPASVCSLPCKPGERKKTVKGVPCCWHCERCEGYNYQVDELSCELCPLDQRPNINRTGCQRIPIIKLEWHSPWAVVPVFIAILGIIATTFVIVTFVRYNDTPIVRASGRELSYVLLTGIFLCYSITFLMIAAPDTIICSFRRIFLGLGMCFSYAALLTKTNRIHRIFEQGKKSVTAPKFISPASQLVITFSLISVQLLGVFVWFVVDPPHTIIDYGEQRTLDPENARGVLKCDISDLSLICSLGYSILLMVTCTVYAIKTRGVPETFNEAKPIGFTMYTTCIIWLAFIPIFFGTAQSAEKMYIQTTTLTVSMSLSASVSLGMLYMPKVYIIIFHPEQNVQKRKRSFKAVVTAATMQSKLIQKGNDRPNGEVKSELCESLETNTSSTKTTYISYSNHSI
For `CCN1C(=O)/C(=c2/s/c(=C3\SC(C)=C(C)N3CC)c(=O)n2CC)N(c2ccccc2)C1=S`, the z-score is -0.708.
Under `CC(=O)Nc1ccc(NC(=O)Cc2sc(C)nc2-c2ccc(C)cc2)cc1` stands -0.345; under `O=C(OC(C(=O)NC1CCCC1)c1ccncc1)C1=Cc2ccccc2OC1` (stereo unspecified), -1.18; under `N#Cc1cc(-c2ccccc2)nnc1Sc1ccc(Cl)cc1`, -0.0665.
For `FC(F)C(F)(F)C1=CC(c2ccccc2)=NCCN1`, the z-score is -0.165.
Under `CCNC(=O)Cc1ccc(NS(=O)(=O)c2ccc(F)cc2)cc1` stands 0.904; under `CC(C)OCCCNC(=O)c1ccc(CS(=O)(=O)Cc2ccccc2F)o1`, -0.084; under `COc1ccc(C2(NC(C)=O)CCN(C(=O)c3cccs3)CC2)cc1`, -0.223.
Under `CC1CC(C)CN(c2cc3c(cc2[N+](=O)[O-])C(=O)N(c2ccccc2)C3=O)C1` (stereo unspecified) stands -0.0335; under `O=C1CC(c2cccc(Cl)c2)CC(O)=C1C=NCCCO` (stereo unspecified), 0.0972.
Under `CC(=O)Nc1cc2c(cc1Br)OCCO2` stands -0.0593; under `C/C(=C\C(=O)N1CCc2ccccc21)C(=O)O`, -0.494; under `CCOCC(=O)Nc1nc(-c2ccccc2)c(CC)s1`, -0.107.
In the case of `CCC(C)NC(=O)/C(=C/c1ccco1)c1ccccc1` (stereo unspecified), the z-score was -0.109.
Compound `COc1ccc(-c2nnc3ccc(SCC(=O)Nc4nc5ccccc5s4)nn23)cc1OC` gave a z-score of -0.256.
Under `COC(=O)c1ccc(CSc2nnc(SCc3ccc(C(=O)OC)o3)s2)o1` stands -0.48; under `COc1ccc(C(c2nnnn2CS(=O)(=O)c2ccc(C)cc2)N2CCN(c3ncccn3)CC2)cc1` (stereo unspecified), -0.362.
`Cc1ccc(CNCC2CCCO2)o1` (stereo unspecified) showed a z-score of -0.19.
On to `NC(=O)c1ccc(-n2nnnc2SCC(=O)Nc2ccccc2-c2ccccc2)cc1`, for which the z-score is -1.03.
As to `CC(CCc1ccccc1)NC(=O)Cc1ccccc1` (stereo unspecified), the z-score was -0.167.
Under `C=CCN(CC=C)C(=O)c1ccncc1` stands 0.191; under `N/C(CN1CCCC1=O)=N\OC(=O)c1ccccc1Cl`, -0.018.
The result for `Cc1cc(C)nc(Nc2n[nH]c(-c3cccc4ccccc34)n2)n1` reads -0.403; that for `CCOc1ccc(-c2nc(C#N)c(NCC(C)C)o2)cc1`, -0.318; that for `O=S(=O)(c1cnccc1N1CCN(/N=C/c2ccc(Br)cc2)CC1)N1CCCCC1`, -0.157.
The result for `CSc1nc2c(c(-c3ccccc3)c1C#N)CCC2` reads -0.891.
As to `CCN(C1CCCCC1)S(=O)(=O)c1ccc(S(=O)(=O)N2CCN(CCC#N)CC2)cc1`, the z-score is -0.359.
Under `CN1CCN(CCC(=O)N/N=C/c2cc([N+](=O)[O-])ccc2O)CC1` stands -0.0062.
The result for `O=C(COc1ccccc1)Nc1cccc(-c2nc3cc4ccccc4cc3[nH]2)c1` reads -0.401.
Consider `COc1cccc(N2CCN(CC(=O)c3c(C)[nH]c4ccccc34)CC2)c1`, for which the z-score is -0.161.
The result for `O=C(Nc1ccc2oc(-c3ccccc3Cl)nc2c1)c1ncn[nH]1` reads -0.735.
The result for `C=CCn1c(CNC(=O)c2ccco2)nnc1SCC(=O)N1c2ccccc2Sc2ccccc21` reads -0.413; that for `CN(C)c1ccc(-c2ccccc2)nn1`, -0.328.
For the compound `CC(C)CCN1CN(S(=O)(=O)c2cccs2)c2nc3ccccc3nc21`, the z-score was -0.0647.
Under `CCCn1c(SCC(=O)N2CC(=O)Nc3ccccc32)nc2ccccc21` stands 0.257; under `N#Cc1cccc(-n2nnnc2-c2ccccn2)c1`, 1.09.
Under `CC(C)c1ccccc1NC(=S)NN(Cc1ccccc1)c1ccccc1` stands -0.164.
Under `CC(=O)/C(=C/c1ccc(N(C)C)cc1)C(=O)c1ccccc1` stands -0.00758; under `COc1cc(C2C(C(C)=O)=C(O)C(=O)N2CCN(C)C)ccc1O` (stereo unspecified), 0.309; under `O=C(COc1cccnc1[N+](=O)[O-])NC1CCS(=O)(=O)C1` (stereo unspecified), -0.147.
Regarding `Cc1ccccc1NC(=O)Cc1nc(CSc2nnc(-c3ccc4c(c3)OCO4)o2)cs1`, the z-score stood at 0.189.
In turn, `COC(=O)c1[nH]c2cc(OC)ccc2c1NC(=O)CCN1CCCCC1` came in with a z-score of 0.109.
The compound `Cc1ccc(-n2c(SCC(=O)Nc3ccc(N4CCOCC4)cc3)nc3ccccc3c2=O)cc1` gave a z-score of -0.0731.
Under `Cc1ccc(C(=O)NNC(=O)c2cc(OCC(F)(F)F)ccc2OCC(F)(F)F)cc1` stands 0.0812.
Under `CC(C)C(NS(=O)(=O)c1cccc2nsnc12)C(=O)Nc1nc2ccc(Cl)cc2s1` (stereo unspecified) stands 0.14; under `COCCn1c(SCc2nc3scc(-c4ccc(Cl)cc4)c3c(=O)[nH]2)nnc1-c1cccc(C)c1`, -0.856; under `C/C(O)=C(/C#N)c1nc2ccccc2[nH]1`, 0.165.
The result for `Clc1ccccc1-c1nc2ccccc2c2nc3ccccc3n12` reads -0.316; that for `CCCCCCOC(=O)C(C#N)c1nc2ccccc2nc1N1CCN(CC)CC1` (stereo unspecified), 0.709; that for `Cc1onc(-c2c(Cl)cccc2Cl)c1C(=O)n1nnc2ccccc21`, -0.18.
`Cc1nc2ncnn2c(C)c1CCC(=O)N1CC(C)CC(C)C1` (stereo unspecified) showed a z-score of -0.0973.
In turn, `CC(C)(C)NC(=O)CCC1COc2ccccc2O1` (stereo unspecified) returned a z-score of -0.00979.
In turn, `CCCCN(C)C(=O)CCC(=O)NNc1nc2ccccc2c2nc(C)nn12` registered a z-score of -0.0531.
Under `COc1ccc(NC(=S)Nc2ccc(OCc3ccccc3)cc2)cc1OC` stands 0.114; under `O=C(Nc1ccc2c(c1)OCO2)NC1(C(F)(F)F)Oc2ccccc2O1`, 0.348.
Under `O=C(CN1CCN(C(=S)NC2CCCC2)CC1)Nc1ccc(Oc2ccccc2)cc1` stands -0.13.
The result for `O=c1[nH]c(CSc2nc(-c3ccccc3)cs2)nc2ccccc12` reads -0.182; that for `COc1ccc(N/N=C(/N=Nc2nc(C)cc(=O)[nH]2)c2ccccc2)cc1`, -0.072; that for `O=S(c1ccsc1)c1ccsc1`, -0.939.
As to `CCn1c(SCc2ccc(Cl)cc2)nc2nc3c(cc2c1=O)CCCC3`, the z-score came out at 0.193.
The result for `CC(C)Cc1ccc(S(=O)(=O)N2CCN(C(=O)c3ccco3)CC2)cc1` reads -0.0515; that for `COC(=O)c1cc(-c2ccccc2)sc1N`, -0.00329; that for `COC(=O)c1ccc(N2C(=O)CC(Sc3n[nH]c(C)n3)C2=O)cc1` (stereo unspecified), active: 4.88.
For the compound `O=C1CCCN1c1cccc(Br)c1`, the z-score is 1.48.
The result for `COc1ccc(-c2c(N)nnc3c2[nH]c2ccccc23)cc1OC` reads 0.093; that for `O=C1N=C(N2CCN(c3ccccc3)CC2)SC1Cc1ccccc1` (stereo unspecified), -0.845.
As to `Cc1cc(C)c(S(=O)(=O)NCCCN2CCOCC2)cc1Br`, the z-score was -0.0584.
As to `Cc1nn(Cc2c(Cl)cccc2Cl)c(C)c1NC(=O)c1sc2ccccc2c1Cl`, the z-score was -0.0715.
Under `Cc1cc(=O)[nH]c(N2CCc3ccccc3C2)n1` stands -0.185; under `Cc1ccc(NC(=O)c2cc(NC(=O)C3CC=CCC3C(=O)O)ccc2N2CCOCC2)cc1Cl` (stereo unspecified), 0.251; under `CCONC(=O)Nc1ccccc1[N+](=O)[O-]`, -0.32.
